Data: the supplement of paper PMC12632987
In all, about 2,300 sequences were measured (“median log2 fold change of GCK-ALFA target abundance (FLAG IP / Myc IP barcode read proportion)”: median about 0.095, lowest 2% from about -0.47 on). The list shows a part of the results.

B1: LC3A_28_805 (protein)
chain: SATRANADAALAEARAALAAGEPVHVTITVPADATQAEIDYVAGVIREMARAAAAAGASSLSVVVDVDQNQTAVTTISNTEDELRAEGLPVNVVIALEEP
B2: LC3A_free_0_2105 (protein)
chain: TTVVGEVVAITEKALSEEDLAKVKAEMEEIAKELKEKYGMEVKVTVEEVDGRTVFTLEFSKEGMSVEEMIEIVDEVADRLEKKFKELGHDVTVYTSVYEE
B3: LC3A_28_1016 (protein)
chain: SALDKQLEAIEKEARAAIEAGEDVVLTLKITGDMTLEEVREAMARLKEIVLEGAKKGKVDLVIDLDADVTQEKRDIVFEAADEIEAAAPNVNVIIALEER
B4: LC3A_28_1099 (protein)
chain: SALEANLAAALAETRAAAAAGEEALIEITVTDEATEADLARLIATIEEIAEIAADLPALTVVIDLDGENAEAKANILSKAADELEKKYPNLTIIIALDED
B5: LC3A_free_39_2180 (protein)
chain: SEEELEEVKEEILKLAEEEGEEAKKIAEELLELVEGNLELAKLILEGLKKVKEAGGDVKAALKALLEEVKRMKKEGKSLEELKERIKEILEDHLNLIPLD
B6: LC3A_28_1259 (protein)
chain: SALDENIAAALAEVRAAVARGEEAVVTITVPAGATEEEIDRVIATMREIAELAAGLPRVTIIIDVERGVAQEHIDRLADEGERLEAEYPNLTVIIALEEE
B7: LC3A_3_1685 (protein)
chain: MEELVEEVLKIAKENGYSEETLKALKELLELLKERGYEKAIEKLKEELKRLKDASSELWKDMFEDLKHLLLTEDLSEEEVVKKIEEEARVIENDLEIEEL
B8: LC3A_28_706 (protein)
chain: MKLEESIKKAIEEAKKAAEEGKEAVITITIPSDATEEDIEKVIEALYEIAEITKDLKRTTIVIDIEGGVKQEHINKLIDAGEEIEKKYPNVTVIFALDEE
B9: LC3A_free_8_2550 (protein)
chain: ASAALTTAVTAKLDELSEELSKKAKELGLSQLDINELELEIGEAIIDIIELQDKSPEEILKKLKEDLEEIKELAKELGEELYALAKKLSEEILAAAEAMM
B10: LC3A_28_1066 (protein)
chain: NPLAAQLAAALAEARAAAAAGEEVTVTLTLDANSTDEDLDRVLATMEEIAEIAKDMPALSIIVDVDNPNKEEDTKRIAEKGEELEKRYPNVTVIIALSEE
B11: LC3A_free_8_2455 (protein)
chain: MNQKIVDKLTEMLEEMEEKLVKKLKELGKSRLDILELELEIGSAIADIISKVDESPEEILKTLKEDLERIIKLAEEIHPEVAKLAKEMSKKILEEAEKLI
B12: LC3A_3_1676 (protein)
chain: LEELVEEALETIDETIEDEEVRELFRRAVELLAARGLEEEIRAVAELVKEMKDLPTEKQLERAEALLATVEAATGSPEAAAAAVSSEISVLRNELEIEEL
B13: LC3A_28_915 (protein)
chain: SALDKSTEAAIKKIEEDAAKGEPAVVRLEVTEEDPAAAEAATRAALERLAEVMKKYKNVTVIVDAPERVLDAVTAVADEVEAELLKENPSNHIIVAAEEP
B14: LC3A_28_1220 (protein)
chain: AAVEAQIAAARAQMEAAKAKGEEALITVKVGGGTTVEDAKRLMDALEEIVAEAADLPSISIIIDVDGGVSQEVIDTIAEKGEAIEKKYPNVTVIIALDEE
B15: LC3A_3_1700 (protein)
chain: MEEILKEAEEILEKQGRSEETKEAALAAVKALLEKGYEEAAKTLLEKLKEAKDLSDEILKAFYEDVLRYVETEDVDEETAIKFINEEYEIAKNEQEIEEL
B16: LC3A_62_2051 (protein)
chain: MYRAVIDIDFLFETEEKAKKAAEEIKEAAEEIKEEYPEVEVEVEVEIEGTYLKVTVTLEAPNKETLEAAVNDLIDRFDEIAEKYGAKAVLISVDIEEVEP
B17: LC3A_132_292 (protein)
chain: QEELAKEILEKIKKLVEEAKKNIEDEEKVKKYLEEIEKLLREAAERLSPELLAEVMDKAVELLDELSRKFLEAGKEELAMEADGLRIEAASLSLRARESL
B18: LC3A_28_834 (protein)
chain: SLAEKQIEEAKKQLDEAKETKEDVLVEIEITSTMTPEEAEEIMDAVEEEISKLDKSIKVDIVVLFKEPASQEVIDVVTDKGEEIEEKFPNVNFIVALPEP
B19: LC3A_free_26_2165 (protein)
chain: DEFLDIAALDEAIENLEKAIKLAKENPNVSKELIELLERALKHLKKGTAESFKKAIEDLEKAIKLVKENKEIPEEDKEKLLKLLEEALKKAKENLKILEE

molecular target: MAP1LC3A, Q9H492; assay: median log2 fold change of GCK-ALFA target abundance (FLAG IP / Myc IP barcode read proportion) (log2 ratio); each designed protein is fused to an ALFA-tag nanobody in HEK293 cells to bring the named protein to FLAG-tagged glucokinase (GCK); Myc marks an untargeted standard; higher = target protein stabilised (more abundant); conditions: target protein: 3xFLAG-MCP-GCK-ALFA reporter; HEK293 landing pad (RPLP)
Outline: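 Binders fused to an ALFA nanobody were recombined as a library into HEK293 landing-pad cells, which were induced with 2 μg mL^−1 doxycycline and then transfected to express a FLAG-tagged target and a Myc-tagged standard. After 48 h, circular RNA barcodes recovered by anti-FLAG and anti-Myc immunoprecipitation of lysates were reverse transcribed, amplified and sequenced. Each binder's target abundance is the median log2 ratio of FLAG to Myc barcode read proportions, from barcodes present at ≥10^−7 in both replicates, binders carrying ≥3 barcodes per replicate, a 10^−6 pseudocount and pooled replicates.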

How did the “median log2 fold change” value turn out when B1 was run?
The value was 0.162.

B2 was tested. Which “median log2 fold change” value did it give?
The value was -0.0932.

How did the “median log2 fold change” value turn out when B3 was run?
Its value is 0.0929.

For B4, which “median log2 fold change” value is on record?
Its value is -0.0422.

For B5, which “median log2 fold change” value is on record?
The value was 0.392.

Which “median log2 fold change” value does the source give for B6 here?
Its value is 0.177.

B7 was tested. Which “median log2 fold change” value did it give?
The value was 0.31.

Which “median log2 fold change” value does the source give for B8 here?
The value was 0.0438.

With B9 as the binder, how does the “median log2 fold change” value read?
The value was 0.196.

How did the “median log2 fold change” value turn out when B10 was run?
Its value is 0.133.

How did the “median log2 fold change” value turn out when B11 was run?
Its value is -0.109.

With B12 as the binder, how does the “median log2 fold change” value read?
The value was 0.218.

For B13, which “median log2 fold change” value is on record?
The value was 0.278.

How did the “median log2 fold change” value turn out when B14 was run?
Its value is 0.0342.

Which “median log2 fold change” value does the source give for B15 here?
Its value is 0.13.

B16 was tested. Which “median log2 fold change” value did it give?
The value was -0.135.

Which “median log2 fold change” value does the source give for B17 here?
Its value is 0.283.

For B18, which “median log2 fold change” value is on record?
The value was 0.241.

How did the “median log2 fold change” value turn out when B19 was run?
The value was -0.0261.
